This note sets out measurements from PubChem BioAssay AID1963834 (Molecular Pharmacology Branch, DTP, NCI, 2024).

SMILES strings stand for the structures. Certain results were filed several times, with different values. This is not the full list of results. There may be further records. The records of an entry repeat one measurement across runs, samples, wells, individuals or studies. Signs of the kind (2×) say how often a value occurs here.

The test concerns 873145-292-R-J1-PDC complex spheroid viability. Kind of test: Anticancer human tumor 873145-292-R-J1-PDC patient-derived renal clear cell carcinoma cell line growth inhibition [POLQ]. As to conditions: stronger effect = lower value. As to the method:
Multicellular complex tumor spheroid response to Polymerase (POL) inhibitors (novobiocin, ART-558, RP6685) in combination with a variety of drugs and investigational agents in selected tumor cell lines
The POL inhibitors (novobiocin, ART-558, and RP6685) were evaluated both individually and in combination with standard of care and investigational anticancer small molecules within a complex spheroid model of solid tumors. . Complex spheroids include a stromal component modeled by human endothelial cells (HUVEC) and fibroblasts modeled by human mesenchymal stem cells (MSCs). The concentration ranges selected for each drug and investigational agent were based upon clinically achievable concentrations if the clinical Cmax of the agent was known.
Compounds. […] If the clinical Cmax for an agent had not been determined, the highest concentration tested was 10 microM, except for SN-38, which was tested at a high concentration of 1 microM. […]
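Note: luminescence signal used as surrogate for viable cell content; spheroids exposed to compounds for 7 days before viability readout; 100% = DMSO vehicle control viability.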

Turning to `Nc1ccc(C#CCN(C(=O)Cc2ncc(C(F)(F)F)cc2C(F)(F)F)c2ccc(F)cc2)nn1`, the viability, T/C (compound alone 0.0316 µM) is 88.2, 96.7, 86.8, 99.6, 93.8, 93, 92.2, 99.2, 91.5, 96.1, 86.3, 78.4, 71.4%.

Turning to `COC1C(OC(N)=O)C(O)C(Oc2ccc3c(O)c(NC(=O)c4ccc(O)c(CC=C(C)C)c4)c(=O)oc3c2C)OC1(C)C` (configuration not stated), the viability, T/C (compound alone 0.1 µM) was 100, 94.4, 98.6, 91.8, 87.9, 103 (2×), 97.6, 108, 92.5, 114, 104%.

By viability, T/C is commonly meant the ratio of treated to control.
